Binding signal data for 94 sequences are collected here from paper PMC10668032.

This is one part of the list. At the low end of the ranking the order means little.

The assay has as its target SIX1-Q177R homeodomain (UniProt Q15475). As to the kind of experiment: universal protein binding microarray. The conditions noted are these: Universal all-10-mer PBM (8x60K, AMADID 030236), 300 nM GST-tagged protein, Alexa Fluor 488 anti-GST; buffer, salt, pH and temperature not stated; high values mean tight binding; most listed sequences are background and not binding sites; double strand, one strand shown.
Take ACAGTACT: the binding signal was -0.0128 E-score. For AGCGGCCA the value was -0.271 E-score; for AGGGTAAT, 0.089 E-score; for ATCTGCCA, -0.172 E-score. For GGTTTCAC the value was 0.139 E-score. The same measure for ACAGGCTC: 0.0419 E-score; for ACGCAAGG: -0.0365 E-score; for AACCAAGT: 0.114 E-score. Consider GAAATAAC, for which the binding signal was -0.0686 E-score.

For GATTGGAC, the binding signal was -0.0717 E-score. For CTACCGAC the value was -0.102 E-score.

For the sequence GAACGTCA, the binding signal was -0.0258 E-score. For ACACAGGC the value was 0.0998 E-score; for TTGAAAAA, -0.083 E-score; for AGAATAAA, -0.0206 E-score. For GCTTCGGA the value was -0.0236 E-score; for GAACGCCA, 0.0153 E-score. For the sequence CAAGGCAA, the binding signal was -0.249 E-score. As to CAGATCTC, the binding signal was -0.0474 E-score. On to ATTACGAA, for which the binding signal was -0.145 E-score. The same measure for GCTAAGCC: -0.225 E-score.

As for ACATTTCG, the binding signal was -0.227 E-score. Turning to TGGAAGAA, the binding signal is -0.156 E-score. The same measure for CTAGGAGA: 0.0316 E-score; for CATTGTAA: 0.0542 E-score; for CACATAGG: 0.0681 E-score. The same measure for TACCATGA: -0.143 E-score; for CAACGAAC: -0.156 E-score. The same measure for CCGCGAAG: -0.0261 E-score; for CCTGTGAC: 0.194 E-score. With CCCACTAC, the binding signal is 0.124 E-score. The same measure for TGCGAGAA: -0.122 E-score; for AAACGCGC: -0.12 E-score. For GCAGGGCC the value was -0.023 E-score. CAGGTATA: the binding signal was -0.00418 E-score. The same measure for CCCAAGTC: 0.00494 E-score; for ATGGATCA: 0.0339 E-score. For ACAGGTCA the value was -0.0652 E-score; for GGACAACA, 0.107 E-score; for ATAGTGCG, 0.0395 E-score. On to GAAGTTGC, for which the binding signal is -0.198 E-score. The same measure for ATGTTTAA: -0.19 E-score.

As to CTTAAAGC, the binding signal is -0.182 E-score.

GCAAATAC: the binding signal was -0.141 E-score.

Regarding GCCCGGAA, the binding signal was -0.0612 E-score. For GTGGCCAC the value was 0.123 E-score; for AACGAGGA, 0.0917 E-score; for CTGCTGTC, -0.262 E-score.

For AACACATA, the binding signal was 0.17 E-score. For the sequence AGGGCTGA, the binding signal amounted to 0.0339 E-score. The same measure for TGCAAGAA: -0.193 E-score; for TCACTGGA: -0.17 E-score; for GCCGCAAA: -0.108 E-score. For CACGTTCC the value was 0.0405 E-score.

On to AAACTGTA, for which the binding signal is -0.102 E-score. For ACGCGTAA the value was -0.0371 E-score.

Regarding ACTTTTGA, the binding signal was -0.0621 E-score. Consider GCGTGTCA, for which the binding signal came out at 0.433 E-score.

For CAACCTTC, the binding signal was -0.0276 E-score.

In the case of AGATTTGC, the binding signal is -0.158 E-score. Regarding CAAAGAAA, the binding signal is -0.226 E-score.

Turning to GAACTTGA, the binding signal is -0.21 E-score. For GGGACGTA the value was 0.117 E-score; for AGTCTTTG, -0.178 E-score.

As for AAGGAGTC, the binding signal was found to be 0.0261 E-score. For ACTAATAC the value was 0.08 E-score; for AGCCCGAT, -0.0892 E-score; for CCCGAGCA, 0.0851 E-score. The same measure for GACAAGAC: -0.0555 E-score; for ACAAACTA: 0.0712 E-score. For CATACACG the value was 0.385 E-score. Take GACTAGTC: the binding signal is -0.0262 E-score. For TCAATTGA the value was -0.297 E-score; for GAACTTAC, 0.00609 E-score. For AAGGCCCA the value was -0.298 E-score. For GACCGGTC the value was -0.141 E-score; for CAACACTA, 0.34 E-score. In the case of GCAGGAAA, the binding signal was -0.0967 E-score. The same measure for GCGTGAGA: -0.118 E-score.

For the sequence AAGTACGG, the binding signal is -0.171 E-score.

Regarding AGAGCACC, the binding signal was 0.202 E-score. The same measure for GCGGTGAA: -0.221 E-score. The same measure for CCTGTATA: -0.139 E-score. Turning to CCAAAGGA, the binding signal was -0.0445 E-score. For GCCACCCA the value was -0.0074 E-score. The same measure for GTTATTGA: 0.0467 E-score; for ACATAATA: -0.0879 E-score; for AGTAATGA: 0.0447 E-score. For CAGCAACC the value was -0.0939 E-score.

On to AACTAGCG, for which the binding signal was -0.128 E-score. The same measure for AGGATCCA: 0.0758 E-score; for GCTTCCCA: -0.32 E-score. The same measure for ATGTGACC: -0.0737 E-score; for ACCATCCG: 0.141 E-score.
